Test results reported in the supplement of paper PMC7826260.
This is one part of the list. The data describe in vitro nicking of single-stranded DNA by Rep domains (1 h at 37 °C, 3 µM enzyme); the outer parts of the 90-letter strands are left off. Numbers give uncut DNA relative to the enzyme-free pool, as log2; the lower, the more was cut; hits are not called. Because reads are shares of a total, they shift together; uncut strands gain when others are lost, and binding without cutting may add a little.

System: T1, Rep nickase domain of Muscovy duck circovirus
T1 sequence (Rep 1-111, printed without the tag): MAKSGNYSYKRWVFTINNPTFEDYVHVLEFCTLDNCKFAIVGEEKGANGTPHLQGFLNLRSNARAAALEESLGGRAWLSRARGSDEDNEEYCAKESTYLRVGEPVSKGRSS
Assay: uncleaved DNA left, log2 of reads against the no-enzyme library (log2 ratio); higher = less cleavage (more negative = more Rep cleavage of the k-mer); sequences stand for … in CTCGTCCG…ACCGGAGA
Description: (§1)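 A pool of 90-nt single-stranded DNAs with seven random bases just before the constant AC of the nick site (name = the seven bases) was cut by 3 µM recombinant His6-SUMO-tagged Rep nickase domain (300 nM DNA, 50 mM HEPES pH 8.0, 50 mM NaCl, 1 mM MnCl2, 1 h, 37 °C, three replicates). Uncut DNA was amplified and sequenced.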

| Sequence | uncleaved DNA left (log2) |
| --- | --- |
| AGCATGC | 0.0474 |
| GACTCCA | 0.0851 |
| CCTTCTA | -0.16 |
| TTGGGAA | 0.0729 |
| GATTTTA | -0.389 |
| ACGGAAG | 0.0401 |
| GCCGTAG | -0.0197 |
| AATACGC | -0.0472 |
| TCTGGAA | 0.0296 |
| AAACCTG | -0.0817 |
| TTTGAAC | -0.0536 |
| GCTAGCT | 0.0954 |
| AAAGTTG | 0.0769 |
| CCCGTCT | -0.109 |
| ATTGGGG | 0.242 |
| ATGCCGG | -0.00504 |
| AGGAGGG | 0.0871 |
| GGGCCAC | 0.0334 |
| TTATACT | -4.11 |
| AGCGGAA | 0.165 |

| Sequence | uncleaved DNA left (log2) |
| --- | --- |
| CATCCAG | -0.141 |
| CCGACCG | -0.0617 |
| AAGCGAT | 0.0599 |
| TGGCTCT | -0.0552 |
| GAGACGA | 0.0501 |
| CCACAAT | 0.0444 |
| CCATCTT | -3.29 |
| TTGAGCG | 0.0717 |
| TGTAGTG | -0.0673 |
| CCTATCC | -0.138 |
| ACCTCCT | -0.139 |
| TAACAGG | 0.246 |
| AAGTCTC | -0.0702 |
| ATCACAA | -0.148 |
| AGTTGGT | -0.306 |
| AACTTTA | -0.255 |
| TGCTGAG | 0.112 |
| TACAACC | -0.0979 |
| GCATGTA | -0.0253 |
| CCGGTTT | -0.133 |

System: T2, Rep nickase domain of banana bunchy top virus
T2 sequence (Rep 1-94, printed without the tag): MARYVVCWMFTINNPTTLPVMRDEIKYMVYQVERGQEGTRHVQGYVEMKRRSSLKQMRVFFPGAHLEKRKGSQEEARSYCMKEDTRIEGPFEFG
Assay: as above
Description: as §1

| Sequence | uncleaved DNA left (log2) |
| --- | --- |
| AGCATGC | 0.12 |
| GACTCCA | 0.139 |
| CCTTCTA | -0.126 |
| TTGGGAA | 0.0752 |
| GATTTTA | -0.17 |
| ACGGAAG | 0.0666 |
| GCCGTAG | 0.128 |
| AATACGC | -0.00874 |
| TCTGGAA | 0.0135 |
| AAACCTG | -0.00974 |
| TTTGAAC | -0.0674 |
| GCTAGCT | -0.0279 |
| AAAGTTG | 0.0516 |
| CCCGTCT | -0.16 |
| ATTGGGG | 0.0564 |
| ATGCCGG | 0.00699 |
| AGGAGGG | -0.0582 |
| GGGCCAC | 0.122 |
| TTATACT | -0.576 |
| AGCGGAA | 0.201 |

| Sequence | uncleaved DNA left (log2) |
| --- | --- |
| CATCCAG | -0.0423 |
| CCGACCG | -0.163 |
| AAGCGAT | -0.0419 |
| TGGCTCT | 0.0162 |
| GAGACGA | 0.0854 |
| CCACAAT | 0.0411 |
| CCATCTT | -0.162 |
| TTGAGCG | -0.0386 |
| TGTAGTG | -0.0719 |
| CCTATCC | -0.0348 |
| ACCTCCT | -0.0689 |
| TAACAGG | 0.155 |
| AAGTCTC | -0.167 |
| ATCACAA | 0.00506 |
| AGTTGGT | -0.229 |
| AACTTTA | -0.0308 |
| TGCTGAG | -0.142 |
| TACAACC | 0.002 |
| GCATGTA | 0.0339 |
| CCGGTTT | -0.174 |

System: T3, Rep nickase domain of cabbage leaf curl virus
T3 sequence (Rep 1-116, printed without the tag): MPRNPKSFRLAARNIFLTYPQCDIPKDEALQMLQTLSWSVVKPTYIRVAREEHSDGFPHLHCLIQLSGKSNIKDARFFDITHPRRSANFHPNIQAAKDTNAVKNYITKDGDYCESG
Assay: as above
Description: as §1

| Sequence | uncleaved DNA left (log2) |
| --- | --- |
| AGCATGC | -0.385 |
| GACTCCA | 0.278 |
| CCTTCTA | -0.0451 |
| TTGGGAA | 0.492 |
| GATTTTA | 0.249 |
| ACGGAAG | -0.86 |
| GCCGTAG | -0.109 |
| AATACGC | -0.0623 |
| TCTGGAA | 0.166 |
| AAACCTG | 0.0432 |
| TTTGAAC | 0.13 |
| GCTAGCT | -0.185 |
| AAAGTTG | 0.252 |
| CCCGTCT | -0.159 |
| ATTGGGG | 0.326 |
| ATGCCGG | 0.218 |
| AGGAGGG | -0.0923 |
| GGGCCAC | 0.768 |
| TTATACT | -3.61 |
| AGCGGAA | 0.162 |

| Sequence | uncleaved DNA left (log2) |
| --- | --- |
| CATCCAG | -0.797 |
| CCGACCG | -0.631 |
| AAGCGAT | 0.167 |
| TGGCTCT | 0.175 |
| GAGACGA | 0.691 |
| CCACAAT | -0.372 |
| CCATCTT | -0.584 |
| TTGAGCG | -0.873 |
| TGTAGTG | -0.584 |
| CCTATCC | -0.0171 |
| ACCTCCT | -0.211 |
| TAACAGG | 0.161 |
| AAGTCTC | 0.119 |
| ATCACAA | -0.0975 |
| AGTTGGT | -0.216 |
| AACTTTA | -0.267 |
| TGCTGAG | -0.471 |
| TACAACC | -0.145 |
| GCATGTA | -0.0208 |
| CCGGTTT | 0.202 |
